# Experimental data from PubChem BioAssay AID588453 (National Center for Advancing Translational Sciences (NCATS), 2011).
# “And” between values parts separate entries of the source, which are not always exact repeats. Identical values can stand only once. Out of some 390,000 compounds screened, about 4,000 (1%) were called active. Inconclusive means that the source gave no clear call. Such entries were picked first, then a sample of the others. Calls come from the whole dose curve; as a rule, active = well fitted inhibition curve with a large enough effect; inconclusive = small, poorly fitted or top-dose-only effect; inactive = no such curve, though single readings can be large or run the other way. A potency beside an inconclusive call is a rough fit, not a confirmed value. Where a structure was tested more than once in an assay, its records may differ in their call.
# Target: Thioredoxin reductase 1, cytoplasmic (Rattus norvegicus) (UniProt O89049)
# Test: qHTS Assay for Inhibitors of Mammalian Selenoprotein Thioredoxin Reductase 1 (TrxR1): qHTS; note: nearly all actives have a fitted effect of over 65% in size
# Conditions: recombinant rTrxR1, NADPH fluorescence consumption, selenite substrate; series mostly up to 114 µM; activity change, negative = inhibition: at the top concentration
# Outline: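 Rat TrxR1 (90 nM in the dispensed reagent) was pre-reduced with 400 uM NADPH for 5 min at room temperature, then incubated with compound for 15 min. After 400 uM selenite was added, NADPH fluorescence (Ex 340/Em 450 nm) was followed for 8 min.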
# % is set by controls: 0 for no effect and ±100 for the full control effect; potency is the fitted concentration of half-maximal effect; tags give direction and shape of the fitted curve.
# UniProt O89049, sequence (O89049 whole entry, looked up): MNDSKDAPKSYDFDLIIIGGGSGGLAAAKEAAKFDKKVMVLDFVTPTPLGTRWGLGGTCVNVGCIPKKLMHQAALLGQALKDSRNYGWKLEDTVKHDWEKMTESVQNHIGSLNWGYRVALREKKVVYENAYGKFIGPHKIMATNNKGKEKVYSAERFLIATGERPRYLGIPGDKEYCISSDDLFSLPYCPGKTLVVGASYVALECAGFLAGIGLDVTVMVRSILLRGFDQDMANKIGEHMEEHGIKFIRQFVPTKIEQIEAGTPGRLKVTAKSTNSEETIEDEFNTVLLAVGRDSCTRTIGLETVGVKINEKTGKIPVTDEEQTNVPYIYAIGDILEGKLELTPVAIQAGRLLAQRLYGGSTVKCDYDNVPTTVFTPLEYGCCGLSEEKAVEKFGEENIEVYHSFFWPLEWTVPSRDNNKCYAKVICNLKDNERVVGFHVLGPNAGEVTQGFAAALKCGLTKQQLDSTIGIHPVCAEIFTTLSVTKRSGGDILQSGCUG
SMILES,Potency,"activity change, negative = inhibition"
O=C(NC(Cc1c[nH]c2ccccc12)C(=O)O)/C(=C/c1ccco1)NC(=O)c1ccccc1 (centres undefined),"inconclusive: 89.1 µM [inhibitor, partial curve, poor fit]",–
Cn1nnc(NC(=S)NC(=O)c2cc3ccccc3o2)n1,"inconclusive: 56.2 µM [inhibitor, partial curve, poor fit]",–
CCN(CC)c1ccc(NC(=S)NCC2CCCO2)cc1 (centres undefined),"inconclusive: 79.4 µM [inhibitor, single point]",–
O=C1CCCN1CCCNS(=O)(=O)c1ccc(Br)s1,"inconclusive: 50.1 µM [inhibitor, partial curve, poor fit]",–
CCc1ccc(CNC(=O)Cn2nc(C)n3c(cc4cc(C)ccc43)c2=O)cc1,–,inactive: 22.5%
CN(C)c1ccc(CNc2ccc3c(c2)ncn3C)cc1,"inconclusive: 5.62 µM [inhibitor, full curve]",–
CCOc1ccccc1CNC(=O)C1CCN(c2nnc(-n3c(C)ccc3C)s2)CC1,"inconclusive: 79.4 µM [inhibitor, partial curve, poor fit]",–
FC(F)(F)c1cc(-c2ccco2)nc(NCc2cccs2)n1,"inconclusive: 11.2 µM [inhibitor, full curve]",–
COC(=O)c1ccc(CS(=O)(=O)c2ccc(F)cc2)o1,"inconclusive: 79.4 µM [inhibitor, single point]",–
Cc1ccc(N=Cc2ccc[nH]2)c(O)c1,"inconclusive: 22.4 µM [inhibitor, single point]",–
CCOC(=O)c1cc(-c2ccc(F)cc2)n(CC(=O)NC2CCCCCC2)c1C,–,inactive: 38.8% [at 57.1 µM]
COC(C(=O)C(O)C(C)O)C1Cc2cc3cc(OC4CC(OC5CC(O)C(O)C(C)O5)C(O)C(C)O4)c(C)c(O)c3c(O)c2C(=O)C1OC1CC(OC2CC(OC3CC(O)C(OC)C(C)O3)C(O)C(C)O2)C(O)C(C)O1 (centres undefined),–,inactive: -23.2%
Cc1ccccc1NC(=O)COC(=O)c1ccccc1OCC(=O)Nc1ccc(Br)cc1,–,inactive: 3.25%
CC1CCCC(C)N1C(=O)COC(=O)/C=C/c1ccc(Br)o1 (centres undefined),active: 35.5 µM,–
COc1ccc(N2CCN(C(c3ccccc3)c3nnnn3C(C)C)CC2)cc1 (centres undefined),–,inactive: 11.8%
COc1cc(OC)c(-c2nn3c(-c4cc(C)[nH]n4)nnc3s2)cc1OC,–,inactive: -3.67%
Cc1c(S(=O)(=O)c2ccccn2)c(N)n(Cc2ccccc2Cl)c1C,"inconclusive: 17.8 µM [inhibitor, single point]",–
COC(=O)c1ccc(C2c3c(oc4ccccc4c3=O)C(=O)N2CCCN2CCOCC2)cc1 (centres undefined),active: 10 µM,–
Cc1ccc(C)c(NC(=S)NC(NC(=O)N(C)C)C(Cl)(Cl)Cl)c1 (centres undefined),"inconclusive: 11.2 µM [inhibitor, full curve]",–
CCOc1ccc(C(=O)NC2CC(=O)N(c3ccc(C)cc3)C2)cc1OCC (centres undefined),–,inactive: 14.6% [at 57.1 µM]
COc1ccc(CCNC(=O)CCCn2c(SCC#N)nc3ccccc3c2=O)cc1OC,–,inactive: 7.15%
Cc1csc(/C(=N/OC(=O)c2ccco2)C(N)=O)n1,active: 11.2 µM,–
CCOc1ccccc1CN1CCNC(=O)C1CC(=O)N(C)C1CCOCC1 (centres undefined),"inconclusive: 44.7 µM [inhibitor, partial curve]",–

SMILES,Potency,"activity change, negative = inhibition"
Cc1ccc(-c2nc(NC(=O)CSc3nc(C)nc4sc5c(c34)CCCC5)ns2)cc1,–,inactive: 30.1%
Cc1ccc(C2=NO[C@@](CC(=O)O)(C(=O)Nc3ccc4c(c3)OCCO4)C2)cc1,"inconclusive: 25.1 µM [inhibitor, partial curve, poor fit]",–
Cc1nnc(N=c2ssnc2Cl)o1,"inconclusive: 12.6 µM [inhibitor, full curve]",–
CCc1cccc(NC(=O)C2CCC(CNS(=O)(=O)c3ccc(Br)s3)CC2)c1 (centres undefined),–,inactive: -5.91%
COc1cccc(-c2nc(CS(=O)(=O)CC(=O)Nc3ccc(C(C)=O)cc3)c(C)o2)c1,"inconclusive: 79.4 µM [inhibitor, partial curve, poor fit]",–
COc1ccc(C(C)=O)cc1CSc1nnc(-c2ccc(Cl)cc2)n1-c1ccccc1,–,inactive: 0.987%
CC(=O)Nc1ccc(CN2CCc3c([nH]c4ccccc34)C2C(C)(C)C)cc1 (centres undefined),"inconclusive: 79.4 µM [inhibitor, single point]",–
N=C(N)SCc1ccc(O)c([N+](=O)[O-])c1,"inconclusive: 44.7 µM [inhibitor, partial curve]",–
COc1ccccc1CNC(=O)CCS(=O)(=O)c1cccs1,"inconclusive: 35.5 µM [inhibitor, full curve]",–
CCc1ccc(N(CC)C(=O)c2sc3nc4n(c(=O)c3c2C)CCCC4)cc1,"inconclusive: 50.1 µM [inhibitor, partial curve, poor fit]",–
O=c1cc(N2CCc3ccccc3C2)[nH]c(=O)n1-c1ccc(Br)cc1,–,inactive: -16.8%
CCCCn1c(SCc2ncc(-c3ccccc3)o2)nc2cc(S(N)(=O)=O)ccc21,"inconclusive: 79.4 µM [inhibitor, single point]",–
COc1ccc(C(C)=O)cc1COC(=O)c1ccc2ccccc2n1,–,inactive: -13.8%
O=C(Nc1ccccc1N1CCCCC1)c1cnccn1,"inconclusive: 89.1 µM [inhibitor, single point]",–
Nc1nc(N2CCOCC2)cc(=O)[nH]1,"inconclusive: 35.5 µM [inhibitor, partial curve]",–
O=C(CSc1nc2cc(Cl)ccc2s1)NCC1CCCO1 (centres undefined),–,inactive: -26.8% [at 57.1 µM]
CCOC(=O)c1cc(OC(=O)c2ccccc2OC)n(-c2ccccc2)n1,"inconclusive: 14.1 µM [inhibitor, full curve] and inconclusive: 25.1 µM [inhibitor, full curve]",–
O=C1c2oc3ccccc3c(=O)c2C(c2cccnc2)N1CCCN1CCOCC1 (centres undefined),"inconclusive: 70.8 µM [inhibitor, single point]",–
O=C(CSc1cccc2cccc(Cl)c12)OCC(=O)N1CCN(C(=O)c2ccco2)CC1,"inconclusive: 15.8 µM [inhibitor, partial curve, poor fit]",–
N=c1nc(-c2ccccc2)n(-c2ccccc2)s1,"inconclusive: 50.1 µM [inhibitor, partial curve]",–
Cc1ccc2c(CSc3nc4nc(C)cc(C)n4n3)cc(=O)oc2c1,"inconclusive: 39.8 µM [inhibitor, single point]",–
COc1ccc(CNCCS(=O)(=O)NC2CCCC2)cc1,"inconclusive: 56.2 µM [inhibitor, partial curve]",–
CC(/C=C/C=C/c1ccccc1)=N/NC(=O)C(O)c1ccccc1 (centres undefined),"inconclusive: 35.5 µM [inhibitor, partial curve]",–

SMILES,Potency,"activity change, negative = inhibition"
c1cnc2c(c1)ccc1cccnc12,inactive,–
Cc1ccc(CNC(=O)CCc2nnc(Cc3ccc(-c4ccccc4)cc3)o2)o1,"inconclusive: 70.8 µM [inhibitor, single point]",–
CCOc1ccc2[nH]c(SCC(=O)OC)c([N+](=O)[O-])c2c1,–,inactive: -54.2%
CCOC(=O)C1(Cc2ccccc2C)CCCN(Cc2cc(OC)c(O)c(OC)c2)C1 (centres undefined),"inconclusive: 17.8 µM [inhibitor, single point]",–
COc1cccc(-c2nc(SCC(=O)NCC3CCCO3)c(-c3ccc(Cl)cc3)[nH]2)c1 (centres undefined),–,inactive: 3.96%
CCN(CC)CCCN(Cc1cc2cc3c(cc2[nH]c1=O)OCO3)C(=S)NC,"inconclusive: 79.4 µM [inhibitor, partial curve, poor fit]",–
CCOc1cc(/C=C2\C(=O)ON=C2C)ccc1OCc1ccccc1,"inconclusive: 15.8 µM [inhibitor, single point]",–
CC(N)=NCCCC[C@@H](N)C(=O)O,"inconclusive: 0.0423 µM [inhibitor, partial curve, poor fit]",–
O=C1NN(c2ccccc2)C(=O)/C1=C/c1coc2ccccc2c1=O,"inconclusive: 20 µM [inhibitor, full curve]",–
O=C(CCc1nnc(COc2ccccc2)o1)NCc1ccc(Cl)s1,"inconclusive: 89.1 µM [inhibitor, single point]",–
CN(Cc1ccco1)S(=O)(=O)c1nnc(NC(=O)c2ccccc2)s1,active: 17.8 µM,–
CCOC(=O)c1cccc(C2=CC(=O)C[C@H](c3ccc(OC)cc3)C2)c1,–,inactive: 11.8%
CCOC(=O)CS(=O)(=O)c1nc(-c2ccccc2)cc(C(F)(F)F)n1,"inconclusive: 0.199 µM [inhibitor, full curve, poor fit]",–
CCN(CC)CCN(C(=O)CCOc1ccccc1)c1nc2c(F)cc(F)cc2s1,active: 11.2 µM,–
COc1ccc(OC)c(NC(=O)c2c(NCc3ccc(N(C)C)cc3)sc3c2CCCC3)c1,–,inactive: -23.5% [at 57.1 µM]
O=C1Nc2ccccc2/C1=N\c1sc2c(c1C(=O)Nc1ccccc1)CCCC2,"inconclusive: 44.7 µM [inhibitor, partial curve]",–
O=C(NC1CCCCC1)c1ccc(S(=O)(=O)NCc2ccco2)cc1,"inconclusive: 35.5 µM [inhibitor, partial curve, poor fit]",–
CC1(C)CC(=O)C(CS(=O)(=O)c2ccccc2)=C(Cl)C1,active: 28.2 µM,–
Cc1c(NC(=S)Nc2ccccc2C(F)(F)F)cccc1[N+](=O)[O-],"inconclusive: 20 µM [inhibitor, single point]",–
Cn1cnnc1SCC(=O)Nc1sc2c(c1C(N)=O)CCC2,"inconclusive: 39.8 µM [inhibitor, partial curve]",–
CC(C)Sc1nc2sc3c(c2c(=O)n1-c1ccccc1)CCCC3,–,inactive: 6.14%
CN(CC(=O)Nc1ccccc1C(F)(F)F)Cc1c(O)ccc2ccccc12,"inconclusive: 15.8 µM [inhibitor, single point]",–
CC(=O)Nc1nc(=S)n(-c2ccccc2)[nH]1,"inconclusive: 0.562 µM [inhibitor, full curve, poor fit]",–
